# Laboratory results as given in the supplement of paper PMC9446081.
# The whole screen tested about 39,000 compounds, of which about 220 (0.56%) showed activity. This is one part of the list.
# System: Escherichia coli K-12 BW25113
# Assay: relative growth (OD600 normalised to plate interquartile mean) (fraction); higher = less growth inhibition, active = 0.2 or less
# Settings: 50 µM; LB; incubation time: overnight (16-24 h)
# 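Note: static incubation at 37 °C against the wild-type strain, values averaged over two biological replicates.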
row,Compound,relative growth
1,COc1ccc(S(=O)(=O)N2C[C@H](O)COC[C@H]3O[C@@H](CC(=O)N[C@@H]4CCN(Cc5ccccc5)C4)CC[C@@H]32)cc1,inactive: 1.05
2,O=C(CN1C(=O)c2cccc3cccc(c23)C1=O)N1CCN(CCN2C(=O)[C@@H]3[C@@H](C2=O)[C@@H]2C=C[C@@H]3C2)CC1,inactive: 0.993
3,C[C@H]1CN([C@@H](C)CO)C(=O)c2cc(NS(=O)(=O)c3cn(C)cn3)ccc2O[C@H]1CN(C)Cc1ccncc1,inactive: 1.01
4,COc1ccc(NC(=O)N(C)C[C@@H]2OCCCC[C@@H](C)Oc3ccc(NS(=O)(=O)c4ccc(Cl)cc4)cc3C(=O)N([C@@H](C)CO)C[C@H]2C)cc1,inactive: 1.01
5,C[C@@H]1CCCCO[C@H](CN(C)C(=O)Nc2ccc(F)cc2)[C@H](C)CN([C@@H](C)CO)C(=O)c2cc(NS(=O)(=O)c3cccs3)ccc2O1,inactive: 1.06
6,CC12CCC(=O)C=C1CCC1C2C(O)CC2(C)C1CCC2(O)C(=O)COC(=O)CCC(=O)O (stereo unspecified),inactive: 0.961
7,Nc1c2ccccc2nc2ccccc12,active: 0.0461
8,C[C@@H]1CN([C@H](C)CO)C(=O)c2cccc(NC(=O)CCCCCC(=O)Nc3ccccc3N)c2O[C@H]1CN(C)S(C)(=O)=O,inactive: 1.01
9,Cc1noc(C)c1S(=O)(=O)N(C)C[C@H]1OCCCC[C@@H](C)Oc2ccc(N(C)C)cc2C(=O)N([C@H](C)CO)C[C@@H]1C,inactive: 1.01
10,C[C@H]1CN([C@@H](C)CO)C(=O)CCCn2nncc2CO[C@H]1CN(C)S(=O)(=O)c1ccc(-n2cccn2)cc1,inactive: 1.02
11,C[C@H](CO)N1C[C@H](C)[C@H](CN(C)C(=O)Nc2ccccc2)Oc2ccc(NC(=O)Nc3cccc4ccccc34)cc2C1=O,inactive: 1.01
12,C[C@@H](CO)N1CC[C@H](CN(C)Cc2ccc(Oc3ccccc3)cc2)Oc2c(NC(=O)c3ccncc3)cccc2C1=O,inactive: 1.02
13,NC(=O)c1cc[n+](CC2=C(C(=O)[O-])N3C(=O)C(NC(=O)Cc4cccs4)C3SC2)cc1 (stereo unspecified),inactive: 0.634
14,Cc1noc(C)c1S(=O)(=O)Nc1ccc2c(c1)C(=O)N([C@@H](C)CO)C[C@@H](C)[C@H](CN(C)S(C)(=O)=O)OCCCC[C@@H](C)O2,inactive: 0.993
15,Cc1ccc(S(=O)(=O)Nc2ccc3c(c2)C(=O)N([C@H](C)CO)C[C@@H](C)[C@H](CN(C)C(=O)c2ccccc2)OCCCC[C@@H](C)O3)cc1,inactive: 1
16,Cc1ccccc1S(=O)(=O)N1C[C@@H](O)COC[C@H]2O[C@@H](CC(=O)N3CCOCC3)CC[C@@H]21,inactive: 0.994
